Article PMC4336329 (PLoS ONE, 2015)
The campaign covered roughly 310,000 compounds. About 14,000 (4.5%) showed an effect of 50% or more. The effect is printed as a negative number. The list shows a part of the results.

Each molecule was assayed against human ether-à-go-go-related gene (hERG) potassium channel (human, UniProt Q12809) (assay: primary screen, population patch clamp on CHO cells stably expressing hERG).
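Further: peak tail current of the secondary pulse compared with the same well before compound.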

human ether-à-go-go-related gene (hERG) potassium channel, sequence (Q12809 whole entry, looked up): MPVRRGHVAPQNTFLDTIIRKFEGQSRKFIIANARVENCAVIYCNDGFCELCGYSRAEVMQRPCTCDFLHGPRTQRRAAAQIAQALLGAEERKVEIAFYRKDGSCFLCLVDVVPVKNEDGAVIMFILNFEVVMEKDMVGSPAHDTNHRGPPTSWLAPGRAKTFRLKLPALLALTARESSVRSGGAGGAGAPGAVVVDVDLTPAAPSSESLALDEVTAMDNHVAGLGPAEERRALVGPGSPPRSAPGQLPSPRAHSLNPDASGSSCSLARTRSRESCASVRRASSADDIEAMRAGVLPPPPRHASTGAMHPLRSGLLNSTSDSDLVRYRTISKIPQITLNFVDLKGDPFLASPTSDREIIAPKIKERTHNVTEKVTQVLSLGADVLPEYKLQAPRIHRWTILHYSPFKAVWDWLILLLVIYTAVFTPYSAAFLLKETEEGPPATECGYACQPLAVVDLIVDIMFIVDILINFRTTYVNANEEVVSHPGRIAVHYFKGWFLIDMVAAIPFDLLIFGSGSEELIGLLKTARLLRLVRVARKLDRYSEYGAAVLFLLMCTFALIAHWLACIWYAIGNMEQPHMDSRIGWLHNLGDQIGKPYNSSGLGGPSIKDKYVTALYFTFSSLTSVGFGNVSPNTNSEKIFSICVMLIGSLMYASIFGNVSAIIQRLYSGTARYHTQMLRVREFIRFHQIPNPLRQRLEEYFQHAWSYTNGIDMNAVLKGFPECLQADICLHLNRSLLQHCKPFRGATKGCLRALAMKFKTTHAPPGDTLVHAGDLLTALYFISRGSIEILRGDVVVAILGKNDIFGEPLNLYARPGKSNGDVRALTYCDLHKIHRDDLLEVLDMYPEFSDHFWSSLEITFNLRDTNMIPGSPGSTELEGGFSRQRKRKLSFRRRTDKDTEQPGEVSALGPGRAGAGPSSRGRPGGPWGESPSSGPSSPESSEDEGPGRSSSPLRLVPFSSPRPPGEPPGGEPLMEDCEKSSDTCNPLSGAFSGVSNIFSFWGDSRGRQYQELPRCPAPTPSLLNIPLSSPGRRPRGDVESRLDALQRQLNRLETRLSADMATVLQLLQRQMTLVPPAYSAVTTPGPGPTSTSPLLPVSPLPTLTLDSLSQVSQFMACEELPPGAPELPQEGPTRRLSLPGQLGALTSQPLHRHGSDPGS

| Compound | hERG current change (%, negative = inhibition) at 10uM [%] |
| --- | --- |
| Cc1ccc(S(=O)(=O)NC(C)C(=O)Nc2cccc([N+](=O)[O-])c2)cc1 (centres unmarked) | -10.2 |
| COc1ccc(CNC(=O)CN(C(=O)Cn2nnc(-c3ccccc3F)n2)c2ccc(C)cc2)cc1 | -7.34 |
| COc1c2occc2c(OC(C)=O)c2c(=O)cc(C)oc12 | 17.2 |
| O=S(=O)(NC1CCCCC1N1CCCCC1)c1ccccc1 (centres unmarked) | 15.8 |
| O=C(NCc1cccs1)C1CCN(S(=O)(=O)N2CCCC2)CC1 | -1.59 |
| Cc1c(NC(=O)c2ccc(S(=O)(=O)N3CC(C)OC(C)C3)cc2)c(=O)n(-c2ccccc2)n1C (centres unmarked) | -4.38 |
| COc1cccc2c1cc1c(=O)n(CC(=O)NCCCN3CCN(C)CC3)nc(C)n12 | 8.19 |
| O=C(NCc1ccco1)c1cccc2c1C(=O)N(C1CCCCC1)C2 | -0.569 |
| COc1cc(C2C(C#N)=C(N)OC3=C2C(=O)CCC3)c([N+](=O)[O-])cc1OC (centres unmarked) | -1.77 |
| O=S(=O)(c1ccc2c(c1)OCO2)N1CCN(c2nnnn2-c2ccccc2)CC1 | -14.2 |
| O=C(Nc1cccc(-c2cccc(F)c2)c1)C1CCN(C2CCC2)CC1 | -71.5 |
| N#Cc1ccc(NC(=O)Cn2c3[n+](c4ccc(C(F)(F)F)cc42)CCCCC3)cc1.[Br-] | 7.73 |
| COC(=O)c1sc2ncn(N)c(=O)c2c1C | 13.4 |
| Cc1ccc(Cl)cc1N=C(N)N=C(N)N | -1.74 |
| Cc1nc(N)sc1N=Nc1ccccc1C(F)(F)F | 19.1 |
| COc1cc(C(=O)NCC(c2ccco2)N2CCCC2)ccc1OCc1ccccc1 (centres unmarked) | -40.5 |
| COc1cc(OC)cc(N(C(=O)CNC(=O)c2cccs2)C(C(=O)NCC2CCCO2)c2ccc(OC)c(OC)c2)c1 (centres unmarked) | -0.545 |
| Cc1ccc(NC(=O)C2CCCN(c3cnccn3)C2)c(C)c1 (centres unmarked) | -16.3 |
| CC(NC(=O)c1ccccc1)c1ccc(Br)cc1 (centres unmarked) | 18.1 |

| Compound | hERG current change (%, negative = inhibition) at 10uM [%] |
| --- | --- |
| CC(=O)c1cccc(N(C(=O)c2cnccn2)C(C(=O)NCc2ccccc2)c2ccco2)c1 (centres unmarked) | 8.88 |
| CC(CNC(=O)c1ccc(OC2CCN(Cc3ccccn3)CC2)cc1)Oc1cccnc1 (centres unmarked) | -21.9 |
| CCOc1ccccc1NC(=O)COc1ccc(S(=O)(=O)N2CCCC2)cc1 | -4.32 |
| CCN(C(=O)COC(=O)c1cccnc1SC)c1c(N)n(Cc2ccccc2)c(=O)[nH]c1=O | 4.47 |
| O=C(O)c1ccccc1C(=O)NC1CCCc2ccccc21 (centres unmarked) | 8.96 |
| Cc1cc2[nH]c(=O)c(=O)[nH]c2cc1S(=O)(=O)NC1CCCCC1C (centres unmarked) | -4.27 |
| CN(C)CCNC(=O)C(=O)Nc1cc2c3c(c1)CCN3C(=O)CC2 | 28.5 |
| c1cc2c(cc1-c1[nH]ncc1CN1C[C@H]3CC[C@H]1C3)OCO2 | -3.58 |
| CCOCC(=O)Nc1cccc(SC)c1 | 2.88 |
| Cc1cccc(/C=N\NC(=O)c2sccc2-n2cccc2)c1 | 12.7 |
| COc1cccc(C(=O)NCC(c2cccs2)N2CCc3ccccc32)c1 (centres unmarked) | 3.3 |
| CC(=O)c1c(C)nc2cc(Cl)ccc2c1N | -17.3 |
| COc1ccc(-c2ccc3c(c2)S(=O)(=O)c2cccc(C(=O)NC4CCCC4)c2C3=O)cc1OC | 16.9 |
| CCn1cc(C(=O)O)c(=O)c2cnc(N3CCN(C(=S)NC(=O)c4ccccc4)CC3)nc21 | 7.34 |
| O=C(CNC(=O)OCc1ccccc1)Oc1cc2oc(=O)cc(-c3ccccc3)c2cc1Cl | 8.89 |
| O=C(COC(=O)COc1ccccc1)Nc1ncc([N+](=O)[O-])s1 | 3.09 |
| O=C(Cc1noc2ccccc12)NNC(=S)Nc1ccc(Cl)cc1 | 16.5 |
| Cc1cccc(CCNC(=O)C2CCN(S(=O)(=O)c3cccc4cccnc34)CC2)c1 | -16.3 |
| Nc1c(Cl)cc(-c2cn(CCC(=O)O)c(-c3ccncc3)n2)cc1Cl | 14 |

| Compound | hERG current change (%, negative = inhibition) at 10uM [%] |
| --- | --- |
| COc1cc(S(=O)(=O)N2CCCCC2)ccc1NC(=O)c1ccccc1Cl | -24.6 |
| Cc1ccccc1C(=O)c1cccn1CC(=O)N1CCCCC1 | 10.6 |
| CCOC(=O)c1c(N)sc(N)c1C(=O)OCC | 4.14 |
| CCN(C(=O)CSc1nnc(Cn2nnc3ccccc32)o1)c1nc(C)cs1 | 2.43 |
| COc1ccc(N=Nc2ccc(O)c3ncccc23)cc1 | 18.5 |
| CCCC[C@@H]1C[C@H]1[C@@H](NC(=O)c1ccco1)c1ccc(C(=O)OC)cc1 | -34 |
| CCCc1nnc(NC(=S)Nc2ccccc2)s1 | 25.6 |
| COc1ccc(NC(=O)CN(C)C(=O)C2CCCO2)cc1 (centres unmarked) | -7.74 |
| COc1cccc(C(=O)N(Cc2cccs2)C2CCS(=O)(=O)C2)c1 (centres unmarked) | 15.7 |
| Cc1ccccc1NC(=S)N(Cc1ccccc1)Cc1cccnc1 | -2.5 |
| CC(C)OC(=O)c1nnn(-c2nonc2N)c1CSc1ccccn1 | -18.1 |
| CSc1sc(C(=O)NCC2CC2)c(-c2cccs2)c1C#N | -21.9 |
| CC(C)(C)CC(=O)NC(=S)NCc1ccco1 | 4.25 |
| CCOc1ccccc1C(=O)NCC(=O)NCC(c1ccco1)N1CCCCC1 (centres unmarked) | -10.5 |
| COC(=O)c1sccc1NC(=S)N1CCC(C(N)=O)CC1 | -2.08 |
| COc1ccc(NC(=O)CCCNC(=O)Cn2cnc3sc(C)c(C)c3c2=O)cc1OC | 16.4 |
| CCc1nc(SCC(=O)N2CCCc3ccccc32)c2oc3ccccc3c2n1 | -18.3 |
| N/C(COc1cccc(Cl)c1)=N\O | 13 |
